Measured values from the antibiotic and cytotoxicity screens of Wong et al. (2023).
The list shows a part of the results.

Legend:
[1] = test system: HSkMC (human skeletal muscle cells); assay: cytotoxicity call (relative viability < 0.9); settings: 10 µM
[2] = test system: HepG2; assay: cytotoxicity call (relative viability < 0.9); settings: 10 µM
[3] = test system: S. aureus RN4220; assay: growth inhibition call (relative growth <= 0.2); settings: 50 µM

C[C@@H]1CN([C@H](C)CO)C(=O)Cc2cc(NC(=O)Cn3cnnn3)ccc2O[C@@H]1CN(C)Cc1ccc(Oc2ccccc2)cc1
inactive: cytotoxicity call [1] | cytotoxicity call [2] | growth inhibition call [3]

CC(C)NC(=O)Nc1ccc2c(c1)C(=O)N([C@H](C)CO)C[C@@H](C)[C@@H](CN(C)C(=O)C1CCCCC1)OCCCC[C@@H](C)O2
inactive: cytotoxicity call [1] | cytotoxicity call [2] | growth inhibition call [3]

Cc1ccc(S(=O)(=O)N(C)C[C@@H]2OCCCC[C@H](C)Oc3ccc(NC(=O)Nc4ccc(F)cc4)cc3C(=O)N([C@@H](C)CO)C[C@@H]2C)cc1
inactive: cytotoxicity call [1] | cytotoxicity call [2] | growth inhibition call [3]

COc1ccccc1N1C(N)=NC(N)=NC1(C)C
inactive: cytotoxicity call [1] | cytotoxicity call [2] | growth inhibition call [3]

C[C@@H]1CCCCO[C@H](CN(C)C(=O)Nc2ccc(C(F)(F)F)cc2)[C@H](C)CN([C@H](C)CO)C(=O)c2cc(NC(=O)CCC(F)(F)F)ccc2O1
inactive: cytotoxicity call [1] | cytotoxicity call [2] | growth inhibition call [3]

CCCNC(=O)N(C)C[C@H]1Oc2cc(C#Cc3ccccn3)ccc2S(=O)(=O)N([C@@H](C)CO)C[C@@H]1C
inactive: cytotoxicity call [1] | cytotoxicity call [2] | growth inhibition call [3]

COCC#Cc1cnc2c(c1)C(=O)N([C@@H](C)CO)C[C@H](C)[C@H](CN(C)C(=O)Nc1ccc(OC)cc1)O2
inactive: cytotoxicity call [1] | cytotoxicity call [2] | growth inhibition call [3]

CO[C@@H]1CN(C)C(=O)c2ccc(NS(C)(=O)=O)cc2OC[C@@H](C)N(C(=O)c2ccc3c(c2)OCO3)C[C@@H]1C
inactive: cytotoxicity call [1] | cytotoxicity call [2] | growth inhibition call [3]

C[C@H]1CN([C@@H](C)CO)C(=O)Cc2cc(NC(=O)CCCCCC(=O)Nc3ccccc3N)ccc2O[C@@H]1CN(C)C(=O)Nc1cccc2ccccc12
inactive: cytotoxicity call [1] | cytotoxicity call [2] | growth inhibition call [3]
